Assay [1] has as its target APOBEC3B-ΔNTD-GFP/Flag (amino acids 186-382) (human) (UniProt Q9UH17). The assay is described as follows: co-IP; U2OS or HEK-293T transfected with A3B or A3A constructs; lysate treated with RNase A and Benzonase; anti-Flag M2 gel or GFP-Trap beads, 2 h 4 °C; washes with 250 mM NaCl; western blot; also after knock-down of DDX3 or PABPC1 and after induction of stress granules (interactions not affected).

Amino acid sequences for entries named in this document (tags omitted). A change or cut given only in a name is not applied to a line headed by its entry. Residues count along the entry.
UniProt Q9UH17: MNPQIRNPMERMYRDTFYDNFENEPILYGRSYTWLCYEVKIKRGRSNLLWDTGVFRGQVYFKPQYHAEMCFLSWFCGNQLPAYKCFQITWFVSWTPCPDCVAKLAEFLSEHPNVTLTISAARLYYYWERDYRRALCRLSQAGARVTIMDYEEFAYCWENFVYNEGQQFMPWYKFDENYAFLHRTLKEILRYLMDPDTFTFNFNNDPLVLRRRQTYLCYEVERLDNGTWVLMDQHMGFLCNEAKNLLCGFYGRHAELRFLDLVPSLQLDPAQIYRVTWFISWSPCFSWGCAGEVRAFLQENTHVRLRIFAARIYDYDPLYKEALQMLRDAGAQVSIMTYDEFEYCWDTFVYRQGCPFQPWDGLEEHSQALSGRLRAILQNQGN
APOBEC3B-ΔNTD-GFP/Flag (amino acids 186-382): residues 186-382 of Q9UH17
UniProt P31941: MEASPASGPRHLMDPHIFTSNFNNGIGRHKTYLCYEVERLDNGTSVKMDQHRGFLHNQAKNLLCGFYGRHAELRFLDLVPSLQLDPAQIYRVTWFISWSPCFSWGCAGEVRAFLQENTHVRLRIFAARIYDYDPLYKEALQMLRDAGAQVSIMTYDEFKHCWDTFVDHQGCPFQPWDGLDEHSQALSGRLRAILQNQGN
UniProt P11940: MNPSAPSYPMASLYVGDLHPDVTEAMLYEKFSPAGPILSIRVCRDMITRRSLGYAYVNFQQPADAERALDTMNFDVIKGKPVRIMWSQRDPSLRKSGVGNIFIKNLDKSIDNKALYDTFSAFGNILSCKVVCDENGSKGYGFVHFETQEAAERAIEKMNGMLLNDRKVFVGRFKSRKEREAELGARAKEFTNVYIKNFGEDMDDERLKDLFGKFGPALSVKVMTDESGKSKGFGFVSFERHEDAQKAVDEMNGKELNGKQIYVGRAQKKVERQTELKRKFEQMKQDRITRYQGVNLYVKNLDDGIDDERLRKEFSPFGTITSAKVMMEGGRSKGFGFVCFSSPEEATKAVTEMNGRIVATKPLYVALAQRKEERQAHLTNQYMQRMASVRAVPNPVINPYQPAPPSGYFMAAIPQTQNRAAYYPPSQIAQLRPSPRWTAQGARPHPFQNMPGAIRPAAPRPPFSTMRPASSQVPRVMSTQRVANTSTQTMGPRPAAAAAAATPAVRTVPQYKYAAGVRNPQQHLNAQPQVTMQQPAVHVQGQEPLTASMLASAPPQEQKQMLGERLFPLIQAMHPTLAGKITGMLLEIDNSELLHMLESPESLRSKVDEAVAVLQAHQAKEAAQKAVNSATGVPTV
UniProt O00571: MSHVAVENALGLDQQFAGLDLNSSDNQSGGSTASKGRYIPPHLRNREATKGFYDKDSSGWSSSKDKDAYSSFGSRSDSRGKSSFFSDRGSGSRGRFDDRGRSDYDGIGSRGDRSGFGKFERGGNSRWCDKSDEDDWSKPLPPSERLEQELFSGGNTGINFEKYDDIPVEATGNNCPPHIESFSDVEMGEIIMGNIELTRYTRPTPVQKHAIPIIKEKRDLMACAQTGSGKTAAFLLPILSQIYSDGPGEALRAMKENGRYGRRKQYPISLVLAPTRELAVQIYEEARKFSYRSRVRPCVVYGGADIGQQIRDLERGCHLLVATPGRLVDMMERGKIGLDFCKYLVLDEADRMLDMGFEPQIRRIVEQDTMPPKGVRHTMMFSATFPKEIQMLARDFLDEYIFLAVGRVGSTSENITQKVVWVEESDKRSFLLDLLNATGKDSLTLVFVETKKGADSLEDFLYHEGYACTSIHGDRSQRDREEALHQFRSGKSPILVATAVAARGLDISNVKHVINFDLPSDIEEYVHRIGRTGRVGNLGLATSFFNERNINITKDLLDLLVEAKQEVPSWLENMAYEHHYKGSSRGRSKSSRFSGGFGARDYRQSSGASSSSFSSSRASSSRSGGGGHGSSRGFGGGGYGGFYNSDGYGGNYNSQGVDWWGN
UniProt Q13283: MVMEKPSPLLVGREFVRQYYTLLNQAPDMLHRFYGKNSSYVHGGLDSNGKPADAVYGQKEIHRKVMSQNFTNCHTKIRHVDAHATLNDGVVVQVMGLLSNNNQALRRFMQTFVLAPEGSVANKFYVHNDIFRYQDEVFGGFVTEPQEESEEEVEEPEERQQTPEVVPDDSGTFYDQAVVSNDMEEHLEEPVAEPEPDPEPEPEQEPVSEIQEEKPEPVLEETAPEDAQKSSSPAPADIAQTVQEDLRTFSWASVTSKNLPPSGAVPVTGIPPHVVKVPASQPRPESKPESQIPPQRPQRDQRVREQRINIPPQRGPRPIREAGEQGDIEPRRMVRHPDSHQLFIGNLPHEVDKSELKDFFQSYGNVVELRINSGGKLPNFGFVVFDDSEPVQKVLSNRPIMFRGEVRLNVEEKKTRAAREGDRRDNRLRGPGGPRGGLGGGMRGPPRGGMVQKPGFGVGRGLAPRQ

For assay [2], the target named is APOBEC3B-GFP/Flag (human) (UniProt Q9UH17). Described as above.
The target in assay [3] is APOBEC3A-GFP/Flag (human) (UniProt P31941). Described as above.
The target of assay [4] is PABPC1 (human (endogenous in HEK-293T and U2OS)) (UniProt P11940). The experiment in a line: co-IP; immunoprecipitation of endogenous PABPC1 (antibody and protein G agarose) from U2OS-A3B-flag cells without DOX (A3B not induced); western blot.
Assay [5] has the same target. The experiment in a line: co-IP; immunoprecipitation of endogenous PABPC1 (antibody and protein G agarose) from U2OS-A3B-flag cells with DOX (A3B expressed); lysate treated with RNase A and Benzonase; western blot.

No constants are given. Whether binding was seen depends on the method and setting. In cells and extracts the contact can be indirect. Some binding calls cover weakened binding; strength is not graded here.

For the molecule DDX3 (from UniProt O00571 1-662), the binding result was “no binding” in assay [1], “binds” in assay [2] and “no binding” in assay [3].

With G3BP1 (from UniProt Q13283 1-466), the binding result in assay [2] is reported as “no binding”.

PABPC1 (from UniProt P11940 1-636): the results for the binding result in assay [1], in assay [2] and in assay [3] were “no binding”, “binds” and “no binding”, respectively.

B1: MOV10 (protein, UniProt Q9HCE1 1-1003)
chain: MPSKFSCRQLREAGQCFESFLVVRGLDMETDRERLRTIYNRDFKISFGTPAPGFSSMLYGMKIANLAYVTKTRVRFFRLDRWADVRFPEKRRMKLGSDISKHHKSLLAKIFYDRAEYLHGKHGVDVEVQGPHEARDGQLLIRLDLNRKEVLTLRLRNGGTQSVTLTHLFPLCRTPQFAFYNEDQELPCPLGPGECYELHVHCKTSFVGYFPATVLWELLGPGESGSEGAGTFYIARFLAAVAHSPLAAQLKPMTPFKRTRITGNPVVTNRIEEGERPDRAKGYDLELSMALGTYYPPPRLRQLLPMLLQGTSIFTAPKEIAEIKAQLETALKWRNYEVKLRLLLHLEELQMEHDIRHYDLESVPMTWDPVDQNPRLLTLEVPGVTESRPSVLRGDHLFALLSSETHQEDPITYKGFVHKVELDRVKLSFSMSLLSRFVDGLTFKVNFTFNRQPLRVQHRALELTGRWLLWPMLFPVAPRDVPLLPSDVKLKLYDRSLESNPEQLQAMRHIVTGTTRPAPYIIFGPPGTGKTVTLVEAIKQVVKHLPKAHILACAPSNSGADLLCQRLRVHLPSSIYRLLAPSRDIRMVPEDIKPCCNWDAKKGEYVFPAKKKLQEYRVLITTLITAGRLVSAQFPIDHFTHIFIDEAGHCMEPESLVAIAGLMEVKETGDPGGQLVLAGDPRQLGPVLRSPLTQKHGLGYSLLERLLTYNSLYKKGPDGYDPQFITKLLRNYRSHPTILDIPNQLYYEGELQACADVVDRERFCRWAGLPRQGFPIIFHGVMGKDEREGNSPSFFNPEEAATVTSYLKLLLAPSSKKGKARLSPRSVGVISPYRKQVEKIRYCITKLDRELRGLDDIKDLKVGSVEEFQGQERSVILISTVRSSQSFVQLDLDFNLGFLKNPKRFNVAVTRAKALLIIVGNPLLLGHDPDWKVFLEFCKENGGYTGCPFPAKLDLQQGQNLLQGLSKLSPSTSGPHSHDYLPQEREGEGGLSLQVEPEWRNEL
For B1, the binding entry in assay [4] is listed as “binds”; in assay [1] it was “no binding”; in assay [3], “no binding”; in assay [5], “binds”.

B2: MATR3 (protein, UniProt P43243 1-847)
chain: MSKSFQQSSLSRDSQGHGRDLSAAGIGLLAAATQSLSMPASLGRMNQGTARLASLMNLGMSSSLNQQGAHSALSSASTSSHNLQSIFNIGSRGPLPLSSQHRGDADQASNILASFGLSARDLDELSRYPEDKITPENLPQILLQLKRRRTEEGPTLSYGRDGRSATREPPYRVPRDDWEEKRHFRRDSFDDRGPSLNPVLDYDHGSRSQESGYYDRMDYEDDRLRDGERCRDDSFFGETSHNYHKFDSEYERMGRGPGPLQERSLFEKKRGAPPSSNIEDFHGLLPKGYPHLCSICDLPVHSNKEWSQHINGASHSRRCQLLLEIYPEWNPDNDTGHTMGDPFMLQQSTNPAPGILGPPPPSFHLGGPAVGPRGNLGAGNGNLQGPRHMQKGRVETSRVVHIMDFQRGKNLRYQLLQLVEPFGVISNHLILNKINEAFIEMATTEDAQAAVDYYTTTPALVFGKPVRVHLSQKYKRIKKPEGKPDQKFDQKQELGRVIHLSNLPHSGYSDSAVLKLAEPYGKIKNYILMRMKSQAFIEMETREDAMAMVDHCLKKALWFQGRCVKVDLSEKYKKLVLRIPNRGIDLLKKDKSRKRSYSPDGKESPSDKKSKTDGSQKTESSTEGKEQEEKSGEDGEKDTKDDQTEQEPNMLLESEDELLVDEEEAAALLESGSSVGDETDLANLGDVASDGKKEPSDKAVKKDGSASAAAKKKLKKVDKIEELDQENEAALENGIKNEENTEPGAESSENADDPNKDTSENADGQSDENKDDYTIPDEYRIGPYQPNVPVGIDYVIPKTGFYCKLCSLFYTNEEVAKNTHCSSLPHYQKLKKFLNKLAEERRQKKET
On to B2, for which the binding result in assay [2] was “binds”.

Source of the values: article PMC9925369.
